Measurements: paper PMC8875924
Results are given in words; binding and its absence hold for the method and conditions named. In cells and extracts the contact can be indirect. Some entries that bind do so weakly or less than the wild type. Tags and fused reporters may be left off the sequences shown.

Amino acid sequences for entries named in this document (tags omitted).
UniProt Q9HAU5: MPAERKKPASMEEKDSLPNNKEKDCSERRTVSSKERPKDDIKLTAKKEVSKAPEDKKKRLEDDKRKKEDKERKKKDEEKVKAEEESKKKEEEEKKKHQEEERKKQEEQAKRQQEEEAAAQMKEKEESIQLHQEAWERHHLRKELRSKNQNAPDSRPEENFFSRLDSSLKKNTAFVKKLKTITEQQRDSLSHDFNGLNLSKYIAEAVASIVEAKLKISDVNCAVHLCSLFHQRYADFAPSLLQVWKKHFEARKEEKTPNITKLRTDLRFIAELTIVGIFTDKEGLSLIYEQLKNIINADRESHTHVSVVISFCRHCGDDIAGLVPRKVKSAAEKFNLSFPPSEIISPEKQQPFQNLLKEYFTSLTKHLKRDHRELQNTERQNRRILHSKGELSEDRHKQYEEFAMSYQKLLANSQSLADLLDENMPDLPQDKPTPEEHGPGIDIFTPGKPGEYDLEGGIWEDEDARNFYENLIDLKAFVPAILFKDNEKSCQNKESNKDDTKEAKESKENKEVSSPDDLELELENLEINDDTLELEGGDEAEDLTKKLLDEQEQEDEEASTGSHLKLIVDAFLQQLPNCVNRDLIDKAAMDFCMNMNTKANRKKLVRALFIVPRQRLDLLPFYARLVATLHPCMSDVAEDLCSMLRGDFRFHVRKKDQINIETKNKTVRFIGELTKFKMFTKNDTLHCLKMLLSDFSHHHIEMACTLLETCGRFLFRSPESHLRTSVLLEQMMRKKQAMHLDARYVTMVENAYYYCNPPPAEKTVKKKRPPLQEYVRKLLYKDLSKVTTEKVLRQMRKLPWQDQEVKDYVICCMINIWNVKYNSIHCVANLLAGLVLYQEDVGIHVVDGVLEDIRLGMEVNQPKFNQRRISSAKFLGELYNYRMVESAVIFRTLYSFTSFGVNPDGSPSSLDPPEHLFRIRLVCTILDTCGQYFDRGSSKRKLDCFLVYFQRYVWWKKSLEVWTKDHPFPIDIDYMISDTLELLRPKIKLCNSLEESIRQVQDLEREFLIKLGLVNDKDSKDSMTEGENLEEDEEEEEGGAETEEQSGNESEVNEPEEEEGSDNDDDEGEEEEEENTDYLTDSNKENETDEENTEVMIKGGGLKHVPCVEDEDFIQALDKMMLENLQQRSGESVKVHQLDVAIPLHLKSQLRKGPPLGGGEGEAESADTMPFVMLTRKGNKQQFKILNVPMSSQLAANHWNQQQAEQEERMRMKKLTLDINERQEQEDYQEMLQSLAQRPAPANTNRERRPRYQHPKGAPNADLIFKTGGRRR

T1: EYFP-UPF1 (human) (UniProt Q92900)
T1 sequence: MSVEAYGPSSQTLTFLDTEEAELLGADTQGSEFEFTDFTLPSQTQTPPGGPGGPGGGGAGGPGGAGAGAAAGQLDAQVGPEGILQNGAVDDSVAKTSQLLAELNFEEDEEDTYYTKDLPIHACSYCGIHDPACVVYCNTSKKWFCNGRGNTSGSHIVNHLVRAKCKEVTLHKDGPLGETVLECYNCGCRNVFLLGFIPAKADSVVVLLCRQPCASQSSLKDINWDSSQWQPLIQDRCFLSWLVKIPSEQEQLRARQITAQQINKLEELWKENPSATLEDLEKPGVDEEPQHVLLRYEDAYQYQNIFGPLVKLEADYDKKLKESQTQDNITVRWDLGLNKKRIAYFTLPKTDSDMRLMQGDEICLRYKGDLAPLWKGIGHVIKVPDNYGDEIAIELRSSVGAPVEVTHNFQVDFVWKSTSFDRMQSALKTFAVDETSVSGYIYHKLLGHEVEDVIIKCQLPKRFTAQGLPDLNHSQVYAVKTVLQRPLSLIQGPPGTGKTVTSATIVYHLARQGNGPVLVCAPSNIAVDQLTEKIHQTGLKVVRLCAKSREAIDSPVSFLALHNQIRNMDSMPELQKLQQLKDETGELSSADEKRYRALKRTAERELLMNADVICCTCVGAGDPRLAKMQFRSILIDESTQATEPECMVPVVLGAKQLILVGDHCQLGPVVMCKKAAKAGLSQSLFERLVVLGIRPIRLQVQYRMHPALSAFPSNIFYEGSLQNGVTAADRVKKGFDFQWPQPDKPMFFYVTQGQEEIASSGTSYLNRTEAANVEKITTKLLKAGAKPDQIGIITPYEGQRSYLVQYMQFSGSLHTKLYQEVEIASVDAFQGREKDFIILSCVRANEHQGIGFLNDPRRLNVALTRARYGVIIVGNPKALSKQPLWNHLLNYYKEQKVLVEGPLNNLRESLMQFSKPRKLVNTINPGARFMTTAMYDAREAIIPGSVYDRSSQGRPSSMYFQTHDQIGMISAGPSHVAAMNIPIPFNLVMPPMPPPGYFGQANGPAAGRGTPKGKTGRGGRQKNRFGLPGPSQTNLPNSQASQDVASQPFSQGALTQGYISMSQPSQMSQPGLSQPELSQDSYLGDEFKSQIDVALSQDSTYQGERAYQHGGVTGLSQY

T2: GST-Rex (HTLV-1) (UniProt P0C205)
T2 sequence: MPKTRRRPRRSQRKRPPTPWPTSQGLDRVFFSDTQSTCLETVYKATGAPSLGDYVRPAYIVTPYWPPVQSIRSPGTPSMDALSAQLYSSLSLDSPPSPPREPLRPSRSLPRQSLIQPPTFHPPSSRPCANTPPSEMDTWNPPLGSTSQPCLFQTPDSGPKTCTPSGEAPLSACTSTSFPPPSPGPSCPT


Experiments:
EYFP-UPF1 (human) = molecular target: T1, EYFP-UPF1 (human); experiment: FRET or BRET
GST-Rex (HTLV-1) = molecular target: T2, GST-Rex (HTLV-1); experiment: pull-down
GST-UPF2 = GST-UPF2 (UniProt Q9HAU5); experiment: pull-down

Binder	binding (GST-Rex (HTLV-1))	also measured
ECFP-Rex (protein, UniProt P0C205 1-189) MPKTRRRPRRSQRKRPPTPWPTSQGLDRVFFSDTQSTCLETVYKATGAPSLGDYVRPAYIVTPYWPPVQSIRSPGTPSMDALSAQLYSSLSLDSPPSPPREPLRPSRSLPRQSLIQPPTFHPPSSRPCANTPPSEMDTWNPPLGSTSQPCLFQTPDSGPKTCTPSGEAPLSACTSTSFPPPSPGPSCPT	–	binding (EYFP-UPF1 (human)): binds
Upf3B (endogenous) (protein, UniProt Q9BZI7 1-483) MKEEKEHRPKEKRVTLLTPAGATGSGGGTSGDSSKGEDKQDRNKEKKEALSKVVIRRLPPTLTKEQLQEHLQPMPEHDYFEFFSNDTSLYPHMYARAYINFKNQEDIILFRDRFDGYVFLDNKGQEYPAIVEFAPFQKAAKKKTKKRDTKVGTIDDDPEYRKFLESYATDNEKMTSTPETLLEEIEAKNRELIAKKTTPLLSFLKNKQRMREEKREERRRREIERKRQREEERRKWKEEEKRKRKDIEKLKKIDRIPERDKLKDEPKIKVHRFLLQAVNQKNLLKKPEKGDEKELDKREKAKKLDKENLSDERASGQSCTLPKRSDSELKDEKPKRPEDESGRDYREREREYERDQERILRERERLKRQEEERRRQKERYEKEKTFKRKEEEMKKEKDTLRDKGKKAESTESIGSSEKTEKKEEVVKRDRIRNKDRPAMQLYQPGARSRNRLCPPDDSTKSGDSAAERKQESGISHRKEGGEE	binds	–
HA-UPF3A (protein, UniProt Q9H1J1 1-476) MRSEKEGAGGLRAAVAARGPSGREKLSALEVQFHRDSQQQEAETPPTSSSGCGGGAGKPREEKRTALSKVVIRRLPPGLTKEQLEEQLRPLPAHDYFEFFAADLSLYPHLYSRAYINFRNPDDILLFRDRFDGYIFLDSKGLEYPAVVEFAPFQKIAKKKLRKKDAKTGSIEDDPEYKKFLETYCVEEEKTSANPETLLGEMEAKTRELIARRTTPLLEYIKNRKLEKQRIREEKREERRRRELEKKRLREEEKRRRREEERCKKKETDKQKKIAEKEVRIKLLKKPEKGEEPTTEKPKERGEEIDTGGGKQESCAPGAVVKARPMEGSLEEPQETSHSGSDKEHRDVERSQEQESEAQRYHVDDGRRHRAHHEPERLSRRSEDEQRWGKGPGQDRGKKGSQDSGAPGEAMERLGRAQRCDDSPAPRKERLANKDRPALQLYDPGARFRARECGGNRRICKAEGSGTGPEKREEAE	–	binding (GST-UPF2): binds
Upf3A (endogenous) (protein, UniProt Q9H1J1 1-476) MRSEKEGAGGLRAAVAARGPSGREKLSALEVQFHRDSQQQEAETPPTSSSGCGGGAGKPREEKRTALSKVVIRRLPPGLTKEQLEEQLRPLPAHDYFEFFAADLSLYPHLYSRAYINFRNPDDILLFRDRFDGYIFLDSKGLEYPAVVEFAPFQKIAKKKLRKKDAKTGSIEDDPEYKKFLETYCVEEEKTSANPETLLGEMEAKTRELIARRTTPLLEYIKNRKLEKQRIREEKREERRRRELEKKRLREEEKRRRREEERCKKKETDKQKKIAEKEVRIKLLKKPEKGEEPTTEKPKERGEEIDTGGGKQESCAPGAVVKARPMEGSLEEPQETSHSGSDKEHRDVERSQEQESEAQRYHVDDGRRHRAHHEPERLSRRSEDEQRWGKGPGQDRGKKGSQDSGAPGEAMERLGRAQRCDDSPAPRKERLANKDRPALQLYDPGARFRARECGGNRRICKAEGSGTGPEKREEAE	no binding	–
SMG5 (endogenous) (protein, UniProt Q9UPR3 1-1016) MSQGPPTGESSEPEAKVLHTKRLYRAVVEAVHRLDLILCNKTAYQEVFKPENISLRNKLRELCVKLMFLHPVDYGRKAEELLWRKVYYEVIQLIKTNKKHIHSRSTLECAYRTHLVAGIGFYQHLLLYIQSHYQLELQCCIDWTHVTDPLIGCKKPVSASGKEMDWAQMACHRCLVYLGDLSRYQNELAGVDTELLAERFYYQALSVAPQIGMPFNQLGTLAGSKYYNVEAMYCYLRCIQSEVSFEGAYGNLKRLYDKAAKMYHQLKKCETRKLSPGKKRCKDIKRLLVNFMYLQSLLQPKSSSVDSELTSLCQSVLEDFNLCLFYLPSSPNLSLASEDEEEYESGYAFLPDLLIFQMVIICLMCVHSLERAGSKQYSAAIAFTLALFSHLVNHVNIRLQAELEEGENPVPAFQSDGTDEPESKEPVEKEEEPDPEPPPVTPQVGEGRKSRKFSRLSCLRRRRHPPKVGDDSDLSEGFESDSSHDSARASEGSDSGSDKSLEGGGTAFDAETDSEMNSQESRSDLEDMEEEEGTRSPTLEPPRGRSEAPDSLNGPLGPSEASIASNLQAMSTQMFQTKRCFRLAPTFSNLLLQPTTNPHTSASHRPCVNGDVDKPSEPASEEGSESEGSESSGRSCRNERSIQEKLQVLMAEGLLPAVKVFLDWLRTNPDLIIVCAQSSQSLWNRLSVLLNLLPAAGELQESGLALCPEVQDLLEGCELPDLPSSLLLPEDMALRNLPPLRAAHRRFNFDTDRPLLSTLEESVVRICCIRSFGHFIARLQGSILQFNPEVGIFVSIAQSEQESLLQQAQAQFRMAQEEARRNRLMRDMAQLRLQLEVSQLEGSLQQPKAQSAMSPYLVPDTQALCHHLPVIRQLATSGRFIVIIPRTVIDGLDLLKKEHPGARDGIRYLEAEFKKGNRYIRCQKEVGKSFERHKLKRQDADAWTLYKILDSCKQLTLAQGAGEEDPSGMVTIITGLPLDNPSVLSGPMQAALQAAAHASVDIKNVLDFYKQWKEIG	binds	–
